From the supplement of paper PMC10126150
Sequences with one replicate were seen in a single cluster, so their values are uncertain.

Test system: ATP
Assay: switch fluorescence ratio, 500 uM ATP over buffer (Cy3 cluster intensity, sum of 5 cycles each) (fold (ratio)); higher = stronger signal-on switching upon ATP binding; sequences stand for … in TCGTCGGCAGCGTCAGATGTGTATAAGAGACAGTTTTTTTTTTTTTTTTTTTTTTTTT…TC
Conditions: aptamer strand: ATP DNA aptamer (quencher-CACCTGGGGGAGTATTGCGGAGGAAGG + anchor), 100 nM annealed; ATP concentration: 500 uM; one replicate
In short: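 Clusters carrying Cy3-labelled switching strands on a modified Illumina MiSeq flow-cell were annealed to 100 nM quencher-labelled ATP aptamer and imaged in selection buffer. They were imaged again after 15 min with 500 uM ATP at 22 °C, over five buffer/ATP cycles with NaOH stripping and re-annealing in between. For each cluster, the fluorescence ratio is the summed Cy3 intensity of the target cycles divided by that of the buffer cycles, averaged per switch-domain sequence. Clusters outside 100-1000 RFU were left out.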
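Note: ATP exposure 15 min at 22 °C before imaging.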

Row | Sequence | switch fluorescence ratio
1 | CGACTTGGTT | 0.998
2 | CAGGCGATAG | 1.04
3 | CATTGTTGCG | 0.984
4 | CAGTCCCTTG | 0.988
5 | TATGCTGCGG | 1
6 | ATGTGTGGAT | 0.981
7 | CACGTGCCCC | 1.01
8 | CTGATAGGCG | 1.04
9 | CGAAAGAAT | 1.03
10 | CTGAGATGCT | 1.01
11 | TGCCCCCCAT | 1.01
12 | TCTTTCTAGG | 0.981
13 | GGATGGATTC | 1.1
14 | GATATCATTA | 1.01
15 | AGTGTAGGCC | 0.989
16 | GCTTTACGTA | 1.05
17 | CTATGGTCGC | 0.973
18 | CGCTTTTCGG | 0.981
19 | CGACGTAAGT | 1.2
20 | TTGGCAAAAG | 1.17
21 | TAACCGTACG | 1.44
22 | TGATCCAAAA | 1
23 | TCCCAGTTTC | 1.06

Row | Sequence | switch fluorescence ratio
24 | AGGTTAGGCC | 0.98
25 | TGAAAGGTGA | 0.993
26 | ACAGGGACGA | 1.04
27 | TATCATCTAT | 1.02
28 | GATAATGACT | 1.01
29 | TCTTATTGAT | 0.981
30 | GGGACTGCA | 1.03
31 | AGGGACTCGC | 0.984
32 | GTTTGGGCG | 0.988
33 | CAGGGGTGTA | 0.996
34 | GGTAGTGTG | 0.973
35 | GATAGTTC | 0.979
36 | TATCTCGGT | 1.05
37 | GGATTTGTTC | 0.943
38 | CCGGTGCCCC | 2.69
39 | GTGCTCTTTA | 1.03
40 | GTATGTGTAC | 0.957
41 | TACGTGCTCG | 1.09
42 | GGTTAAAAAG | 0.971
43 | GGTTAACACT | 1.04
44 | TTAATATCT | 1.01
45 | TGGTCTTA | 0.999
46 | ACTTTAGACT | 1.19

Row | Sequence | switch fluorescence ratio
47 | AACCCCAACC | 1.08
48 | CGCGGTAAAT | 1.3
49 | CTTCGCGAAA | 1.43
50 | CCAGTGTTTT | 1
51 | TTAAGCCCGC | 1.06
52 | TAGATTGTGG | 0.992
53 | TGCTATACA | 1.08
54 | GATGTATTTA | 1.02
55 | GCTGGCCACG | 1.03
56 | TAAAGGTCTC | 1
57 | GAGATACTGG | 1.04
58 | CCAGTTTGGG | 0.978
59 | AACAGAGGGA | 1
60 | CGCGTTTGGA | 0.997
61 | AAGCAGGT | 1.07
62 | CATGCCGTTG | 1.01
63 | CCGCGGGAAA | 1.02
64 | TTAATGCATA | 1.02
65 | CATCGGTGAC | 1.06
66 | TGACAGGCAA | 1.28
67 | ATGCTCAGCG | 1.01
68 | ACTTACGACC | 1.44
69 | CCGAGGTAGA | 1.17

Row | Sequence | switch fluorescence ratio
70 | TTTCCGATGT | 2.11
71 | AGCTGTAATA | 0.996
72 | CGGTGGTTTT | 0.996
73 | CTTTGCTGAA | 0.983
74 | CGGAAAAAGA | 1.03
75 | TCATTATAGC | 0.974
76 | TGTTGCGGAC | 1.01
77 | GCTCATGGGT | 1.01
78 | GCCGGACTAC | 1.33
79 | GTAGGCCATA | 1.03
80 | CCTGAGAGAA | 0.993
81 | AACCTTTGGG | 1.01
82 | GGAATGAGAG | 1
83 | CACCGATTA | 1.04
84 | CCATTGGCGC | 1.02
85 | GACAGTCTT | 0.991
86 | GGTTTATCTC | 0.982
87 | GGCGTGTCAT | 0.936
88 | GAGCGTCCCC | 1.02
89 | CCATCCATCT | 0.978
90 | AAATAGAGGT | 1.04
91 | TTACTTTTTG | 1.04
92 | TTCCCTTGGA | 1.04

Row | Sequence | switch fluorescence ratio
93 | TTACTCTGCG | 1.2
94 | CGACTGAACG | 1.01
95 | GGTGAATTAT | 1.24
96 | AACTTTTCGA | 1.04
97 | CTTGGTTTGG | 1.01
98 | ACACTTATGA | 1.07
99 | CCAGCCAGAT | 1.03
100 | CAACTTGCA | 0.996
101 | ATACTATCCA | 0.986
102 | TAACCGGATA | 1.05
103 | CCGGTGTGCG | 0.981
104 | GGCCTGTATA | 0.939
105 | CTCAGCTTCC | 1.54
106 | GGCGGGCACG | 0.972
107 | TCTTAGATAG | 0.991
108 | TTAAGCGCA | 1.03
109 | GAGCTTTTTG | 1.02
110 | GGACGCTTCC | 1.46
111 | CTCCCATCGT | 1.08
112 | CCTGAGTGGT | 1.03
113 | TTCTGTAAGG | 0.993
114 | ACATTTTTAA | 1.03
115 | GAGCTGGGGT | 0.99

Row | Sequence | switch fluorescence ratio
116 | ATTCACCT | 1.2
117 | CCGCCTTAGT | 1.68
118 | AGGGCTAGAA | 0.991
119 | CGACCCACTC | 1.49
120 | AAGGTTAAAA | 0.998
121 | TGAAGCCTGT | 0.987
122 | GCCGTTGCTT | 1.02
123 | TCGATGAGTA | 1.02
124 | TTCCTCATTC | 1.25
125 | TCCAGTGGAC | 1.01
126 | GCATAAACCA | 1.03
127 | TAATCGAAC | 0.98
128 | TCGTAAGATG | 1.01
129 | AGCGGTGTTC | 0.989
130 | CCAGCTTAAT | 1.03
131 | AGGGGAACT | 1.13
132 | ACTACGAGGA | 1.05
133 | GCGAAGAGG | 0.953
134 | TATGGGTGTT | 0.931
135 | TATAGGGG | 0.99
136 | CCGCCCTGTG | 2.36
137 | CTGTTCCGGT | 1.03
138 | ATTACCATGT | 1

Row | Sequence | switch fluorescence ratio
139 | TGGATATACT | 0.994
140 | TTCATTATGT | 0.975
141 | AAGAATATCG | 1.01
142 | ATTGATCTCA | 0.98
143 | GATGAGGGGC | 0.807
144 | GGGACTCCTA | 0.973
145 | GAGCATCACG | 1.06
146 | TTCTCGAGCG | 1.05
147 | GGAATTGGAC | 1.03
148 | GTTCTGGCCT | 1.02
149 | CGGCGAACGG | 1
150 | TGCTTGAGCG | 0.997
151 | TTATATTAT | 1.03
152 | GATGGTTGAC | 0.99
153 | GGTTCCTCGG | 1.12
154 | CGGAGGGTCG | 1.07
155 | TAGTCGAACG | 1
156 | CGGATCACGC | 0.952
157 | CAAAAGAGCC | 1.01
158 | AGTGAGGAGC | 0.998
